PMC12820563
This is one part of the list. The list includes weakly bound sequences.

Each sequence was assayed against T1, MBP-FoxP3dN (UniProt Q99JB6) (assay: PD-seq (MBP pull-down with sequencing)). Details: 20 mM Tris-HCl pH 7.5, 100 mM NaCl, 1.5 mM MgCl2, 0.4 uM protein, 0.1 uM dsDNA library, 30 min, room temperature, amylose pull-down; high values mean tight binding; double strand, one strand shown.
T1 sequence: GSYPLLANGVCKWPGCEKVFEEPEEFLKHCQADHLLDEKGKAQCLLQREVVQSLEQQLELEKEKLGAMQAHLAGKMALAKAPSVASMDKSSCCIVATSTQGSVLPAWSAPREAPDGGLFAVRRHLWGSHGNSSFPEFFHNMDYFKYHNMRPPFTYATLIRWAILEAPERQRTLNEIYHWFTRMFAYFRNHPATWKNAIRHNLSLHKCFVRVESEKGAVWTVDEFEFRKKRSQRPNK
In the case of “GATGATTGTTCTCCCAGCTGATGAATTATGATTGTCGAGTAAACAAATTTTCCTAATCTTTCTGTTCAAGCGCCATCTAC”, the binding signal (RPM ratio (pull-down/input)) is reported as 4.27.
In the case of “GATGATTGTTCTCCCAGCTGATGAATTTATCAGTTCGAGTAAACAAATTTTCCTAATCTTTCTGTTCAAGCGCCATCTAC”, the binding signal (RPM ratio (pull-down/input)) is reported as 1.12.
For “GATGATTGTTCTCCCAGCTGATGAATTGGCTGAGTCGAGTAAACAAATTTTCCTAATCTTTCTGTTCAAGCGCCATCTAC”, the binding signal (RPM ratio (pull-down/input)) was 0.244.
Sequence “GATGATTGTTCTCCCAGCTGATGAATTTTAACACTCGAGTAAACAAATTTTCCTAATCTTTCTGTTCAAGCGCCATCTAC” has a binding signal (RPM ratio (pull-down/input)) of 0.669.
For “GATGATTGTTCTCCCAGCTGATGAATTAGGCGCGTCGAGTAAACAAATTTTCCTAATCTTTCTGTTCAAGCGCCATCTAC”, the binding signal (RPM ratio (pull-down/input)) was 1.45.
Work on “GATGATTGTTCTCCCAGCTGATGAATTCCTAACCTCGAGTAAACAAATTTTCCTAATCTTTCTGTTCAAGCGCCATCTAC” yielded a binding signal (RPM ratio (pull-down/input)) of 0.249.
Work on “GATGATTGTTCTCCCAGCTGATGAATTAGTCTAATCGAGTAAACAAATTTTCCTAATCTTTCTGTTCAAGCGCCATCTAC” yielded a binding signal (RPM ratio (pull-down/input)) of 0.582.
In the case of “GATGATTGTTCTCCCAGCTGATGAATTTCCATGCTCGAGTAAACAAATTTTCCTAATCTTTCTGTTCAAGCGCCATCTAC”, the binding signal (RPM ratio (pull-down/input)) is reported as 0.361.
With “GATGATTGTTCTCCCAGCTGATGAATTATGCAAATCGAGTAAACAAATTTTCCTAATCTTTCTGTTCAAGCGCCATCTAC” the binding signal (RPM ratio (pull-down/input)) was 1.16.
Sequence “GATGATTGTTCTCCCAGCTGATGAATTGGCAACGTCGAGTAAACAAATTTTCCTAATCTTTCTGTTCAAGCGCCATCTAC” has a binding signal (RPM ratio (pull-down/input)) of 0.907.
“GATGATTGTTCTCCCAGCTGATGAATTTGCGCTTTCGAGTAAACAAATTTTCCTAATCTTTCTGTTCAAGCGCCATCTAC” showed a binding signal (RPM ratio (pull-down/input)) of 1.8.
With “GATGATTGTTCTCCCAGCTGATGAATTTTGGAAATCGAGTAAACAAATTTTCCTAATCTTTCTGTTCAAGCGCCATCTAC” the binding signal (RPM ratio (pull-down/input)) was 0.335.
Work on “GATGATTGTTCTCCCAGCTGATGAATTAGACAAATCGAGTAAACAAATTTTCCTAATCTTTCTGTTCAAGCGCCATCTAC” yielded a binding signal (RPM ratio (pull-down/input)) of 0.417.
Sequence “GATGATTGTTCTCCCAGCTGATGAATTCTCTAGCTCGAGTAAACAAATTTTCCTAATCTTTCTGTTCAAGCGCCATCTAC” has a binding signal (RPM ratio (pull-down/input)) of 0.209.
“GATGATTGTTCTCCCAGCTGATGAATTGCGCTGCTCGAGTAAACAAATTTTCCTAATCTTTCTGTTCAAGCGCCATCTAC” showed a binding signal (RPM ratio (pull-down/input)) of 1.14.
“GATGATTGTTCTCCCAGCTGATGAATTCTGTATCTCGAGTAAACAAATTTTCCTAATCTTTCTGTTCAAGCGCCATCTAC” gave a binding signal (RPM ratio (pull-down/input)) of 4.93.
For “GATGATTGTTCTCCCAGCTGATGAATTGAGTGACTCGAGTAAACAAATTTTCCTAATCTTTCTGTTCAAGCGCCATCTAC”, the binding signal (RPM ratio (pull-down/input)) was 0.823.
“GATGATTGTTCTCCCAGCTGATGAATTGGTTAGTTCGAGTAAACAAATTTTCCTAATCTTTCTGTTCAAGCGCCATCTAC” showed a binding signal (RPM ratio (pull-down/input)) of 2.42.
“GATGATTGTTCTCCCAGCTGATGAATTCTCTACGTCGAGTAAACAAATTTTCCTAATCTTTCTGTTCAAGCGCCATCTAC” gave a binding signal (RPM ratio (pull-down/input)) of 0.263.
Sequence “GATGATTGTTCTCCCAGCTGATGAATTTAGTAGGTCGAGTAAACAAATTTTCCTAATCTTTCTGTTCAAGCGCCATCTAC” has a binding signal (RPM ratio (pull-down/input)) of 0.704.
Sequence “GATGATTGTTCTCCCAGCTGATGAATTATAACTCTCGAGTAAACAAATTTTCCTAATCTTTCTGTTCAAGCGCCATCTAC” has a binding signal (RPM ratio (pull-down/input)) of 0.598.
“GATGATTGTTCTCCCAGCTGATGAATTTCTTCGGTCGAGTAAACAAATTTTCCTAATCTTTCTGTTCAAGCGCCATCTAC” was tested, and the binding signal (RPM ratio (pull-down/input)) was 0.18.
“GATGATTGTTCTCCCAGCTGATGAATTGGACCGGTCGAGTAAACAAATTTTCCTAATCTTTCTGTTCAAGCGCCATCTAC” gave a binding signal (RPM ratio (pull-down/input)) of 0.204.
“GATGATTGTTCTCCCAGCTGATGAATTCAGTAGATCGAGTAAACAAATTTTCCTAATCTTTCTGTTCAAGCGCCATCTAC” gave a binding signal (RPM ratio (pull-down/input)) of 0.408.
“GATGATTGTTCTCCCAGCTGATGAATTAGGACTGTCGAGTAAACAAATTTTCCTAATCTTTCTGTTCAAGCGCCATCTAC” was tested, and the binding signal (RPM ratio (pull-down/input)) was 0.681.
For “GATGATTGTTCTCCCAGCTGATGAATTCGTCGACTCGAGTAAACAAATTTTCCTAATCTTTCTGTTCAAGCGCCATCTAC”, the binding signal (RPM ratio (pull-down/input)) was 0.351.
“GATGATTGTTCTCCCAGCTGATGAATTTGCGGTTTCGAGTAAACAAATTTTCCTAATCTTTCTGTTCAAGCGCCATCTAC” gave a binding signal (RPM ratio (pull-down/input)) of 1.42.
“GATGATTGTTCTCCCAGCTGATGAATTGGTAAGATCGAGTAAACAAATTTTCCTAATCTTTCTGTTCAAGCGCCATCTAC” showed a binding signal (RPM ratio (pull-down/input)) of 0.265.
For “GATGATTGTTCTCCCAGCTGATGAATTAAAAAGATCGAGTAAACAAATTTTCCTAATCTTTCTGTTCAAGCGCCATCTAC”, the binding signal (RPM ratio (pull-down/input)) was 0.167.
For “GATGATTGTTCTCCCAGCTGATGAATTTACGGTGTCGAGTAAACAAATTTTCCTAATCTTTCTGTTCAAGCGCCATCTAC”, the binding signal (RPM ratio (pull-down/input)) was 0.764.
With “GATGATTGTTCTCCCAGCTGATGAATTCTTTAACTCGAGTAAACAAATTTTCCTAATCTTTCTGTTCAAGCGCCATCTAC” the binding signal (RPM ratio (pull-down/input)) was 0.201.
“GATGATTGTTCTCCCAGCTGATGAATTAATTAACTCGAGTAAACAAATTTTCCTAATCTTTCTGTTCAAGCGCCATCTAC” gave a binding signal (RPM ratio (pull-down/input)) of 0.403.
“GATGATTGTTCTCCCAGCTGATGAATTTACGCACTCGAGTAAACAAATTTTCCTAATCTTTCTGTTCAAGCGCCATCTAC” gave a binding signal (RPM ratio (pull-down/input)) of 0.784.
Sequence “GATGATTGTTCTCCCAGCTGATGAATTCTACCAGTCGAGTAAACAAATTTTCCTAATCTTTCTGTTCAAGCGCCATCTAC” has a binding signal (RPM ratio (pull-down/input)) of 0.207.
In the case of “GATGATTGTTCTCCCAGCTGATGAATTGTTCAGTTCGAGTAAACAAATTTTCCTAATCTTTCTGTTCAAGCGCCATCTAC”, the binding signal (RPM ratio (pull-down/input)) is reported as 0.356.
“GATGATTGTTCTCCCAGCTGATGAATTGTGCTACTCGAGTAAACAAATTTTCCTAATCTTTCTGTTCAAGCGCCATCTAC” was tested, and the binding signal (RPM ratio (pull-down/input)) was 2.9.
In the case of “GATGATTGTTCTCCCAGCTGATGAATTCTCCCTTTCGAGTAAACAAATTTTCCTAATCTTTCTGTTCAAGCGCCATCTAC”, the binding signal (RPM ratio (pull-down/input)) is reported as 0.236.
“GATGATTGTTCTCCCAGCTGATGAATTTGCACTGTCGAGTAAACAAATTTTCCTAATCTTTCTGTTCAAGCGCCATCTAC” gave a binding signal (RPM ratio (pull-down/input)) of 0.816.
“GATGATTGTTCTCCCAGCTGATGAATTCGTAACTTCGAGTAAACAAATTTTCCTAATCTTTCTGTTCAAGCGCCATCTAC” gave a binding signal (RPM ratio (pull-down/input)) of 0.576.
In the case of “GATGATTGTTCTCCCAGCTGATGAATTGTCTTTTTCGAGTAAACAAATTTTCCTAATCTTTCTGTTCAAGCGCCATCTAC”, the binding signal (RPM ratio (pull-down/input)) is reported as 0.73.
